PubChem BioAssay AID602329 (Broad Institute, 2012)
In all, about 360,000 compounds went through this assay and about 510 (0.14%) were called active. Inconclusive means that the source gave no clear call. Such entries were picked first, then a sample of the others.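 How the source made its calls: active means mean normalized replicate activity at least 40 and at least half of replicates scoring 40 or more; inconclusive means only one of the two criteria met; inactive means mean below 40 and under half of replicates reaching 40.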

target: DNA repair and recombination protein RAD54-like (Homo sapiens) (UniProt Q92698); assay: RAD54 Holliday junction migration blockers – biochemical, fluorescence, single point, primary screen (AID 602329); details: RAD54 Holliday junction branch migration, FAM/BHQ fluorescence; at 10.4 µM; stronger effect = higher value;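 further: 0% = median of neutral control wells and 100% = median of positive control wells; inhibitors cause a drop in the FAM fluorescence signal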
UniProt Q92698, sequence (Q92698 whole entry, looked up): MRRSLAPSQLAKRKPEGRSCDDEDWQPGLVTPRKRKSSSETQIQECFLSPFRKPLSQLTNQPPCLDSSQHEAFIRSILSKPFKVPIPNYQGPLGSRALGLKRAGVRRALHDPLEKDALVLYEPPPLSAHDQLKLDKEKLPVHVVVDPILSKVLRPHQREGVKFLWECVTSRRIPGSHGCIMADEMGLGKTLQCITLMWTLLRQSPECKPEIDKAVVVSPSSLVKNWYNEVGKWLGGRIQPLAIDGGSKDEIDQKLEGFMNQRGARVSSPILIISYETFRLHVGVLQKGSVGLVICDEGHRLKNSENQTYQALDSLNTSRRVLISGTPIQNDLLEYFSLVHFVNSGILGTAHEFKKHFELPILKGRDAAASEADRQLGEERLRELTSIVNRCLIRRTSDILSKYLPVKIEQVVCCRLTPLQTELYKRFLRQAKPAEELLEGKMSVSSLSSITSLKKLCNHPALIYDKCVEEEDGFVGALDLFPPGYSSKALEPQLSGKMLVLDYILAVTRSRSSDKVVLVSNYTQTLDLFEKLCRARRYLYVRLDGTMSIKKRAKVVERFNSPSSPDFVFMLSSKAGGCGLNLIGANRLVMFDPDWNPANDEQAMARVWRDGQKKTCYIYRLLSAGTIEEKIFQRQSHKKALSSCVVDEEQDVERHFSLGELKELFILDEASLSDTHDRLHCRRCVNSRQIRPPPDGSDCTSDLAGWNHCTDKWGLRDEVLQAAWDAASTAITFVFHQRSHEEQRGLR

inhibition, inactive:
CCCCN(C=O)c1c(CC)nc2ccc(C(=O)N3CCN(C(C)=O)CC3)cn12 -7.7%
O=C(NCc1ccccc1)C1=C[C@@H](C2CC2)C[C@@H](OCCCCO)O1 1.33%
COc1ccc(Oc2c(OC)cc([N+](=O)[O-])c3ncccc23)cc1 0.121%
CCCN1C[C@H](C)[C@@H](OC)CN(C)C(=O)c2cc(NC(=O)NC3CCCCC3)ccc2OC[C@H]1C -11.6%
O=C(CC1C(=O)NCCN1Cc1ccccc1)NCCN1CCCCC1=O (stereo unspecified) -1.08%
CC(C)C#Cc1cnc2c(c1)C(=O)N([C@H](C)CO)C[C@H](C)[C@H](CN(C)C(=O)c1ccc3c(c1)OCO3)O2 4.09%
Cc1ccc(S(=O)(=O)N(C)C[C@H]2OCCCC[C@H](C)Oc3ccc(NS(=O)(=O)c4c(C)noc4C)cc3C(=O)N([C@H](C)CO)C[C@@H]2C)cc1 3.91%
O=C(C[C@@H]1C=C[C@H](NC(=O)c2ccc(F)cc2)[C@H](CO)O1)NCCc1ccccc1 -3.82%
CN(C)C(=O)[C@@H]1[C@@H](CO)[C@@H]2Cn3c(ccc(-c4ccncc4)c3=O)[C@@H]2N1Cc1ccccc1F 1.45%
Cc1cccn2c(=O)c3cc(C(=O)NC4CCCC4)sc3nc12 11.1%
CC(CN(C)Cc1ccccc1)OC(=O)c1ccccc1F (stereo unspecified) 4.37%
CC(=O)c1cccc(NC(=O)Cn2c(=O)oc3cc(S(=O)(=O)N4CCCC4)ccc32)c1 -11.8%

inhibition, active:
Cn1c2ccccc2c(=O)c2cc(NCCCN3CCOCC3)ccc21 116%
COc1cc(-c2cnc3c(NC=O)cc(-c4cccc(C(=O)NCCN(C)C)c4)cn23)cc(OC)c1OC 101%
Nc1ccc2c(O)cc(S(=O)(=O)O)cc2c1 72.6%
Nc1cc2c3c(cccc3c1)C(=O)N(CCN1CCCC1)C2=O 89.7%
CN1CCc2[nH]c3ccc(C(=O)NN)cc3c2C1 66.9%
CCN(CC)CCNc1ccc(CO)c2sc3ccccc3c(=O)c12 100%
Cn1nc(-c2ccccn2)nc2c(=O)n(C)c(=O)nc1-2 61.2%
COc1ccccc1NC(=O)CNC(=O)c1ccccc1 51.7%
Cc1cccn2c(=O)c3cc(C#N)c(=O)n(CCCN4CCOCC4)c3nc12 56.4%

inhibition, inconclusive:
Cc1ccc2nc(C)c3c(c2c1)N(c1ccc(F)cc1)CC3 46.4%
CCCCN(CC)CCNC(=O)c1cc2c(=O)[nH]c3ccc(C)cc3c2s1 47.9%
COc1ccc(CCn2c(=N)c(C(=O)NCCN3CCOCC3)cc3c(=O)n4ccccc4nc32)cc1OC 47.6%
Cc1nc2oc3c(=O)[nH]cnc3c2c2c1COC(C)(C)C2 49.3%
CCN(CC)CCn1c2ccccc2c2nc3ccc([N+](=O)[O-])cc3cc21 40.7%
Cc1nc2ccccc2c2oc(C(=O)NCCN3CCN(C)CC3)cc12 46.3%
Cc1nnc2c(N3CCN(CCO)CC3)nc3ccccc3n12 46.3%
COc1cccc(S(=O)(=O)N2CCCCN3[C@@H](CO)[C@H](c4ccc(C#CCC(C)C)cc4)[C@@H]3C2)c1 24.2%
CCOC(=O)c1c(CN2CCCCC2)n(C)c2cc(Br)c(OC)cc12 40.2%
CCN1CCN(c2cc(C)c3cc(NC(=S)N4CCCCC4)ccc3n2)CC1 44.3%
O=C1c2cc(CO)cc(O)c2C(=O)c2c(O[C@@H]3OC(CO)[C@@H](O)[C@@H](O)[C@@H]3O)cccc21 (stereo partly specified) 49.3%
COc1ccccc1CNC(=O)C[C@@H]1C[C@@H]2c3cc(NC(=O)CN(C)C)ccc3O[C@@H]2[C@@H](CO)O1 30.9%
O=C(Nc1ccc2c(c1)OCO2)c1cc(-c2ccncc2)nc2ccccc12 38.2%
COc1ccccc1C(=O)NC(=O)COC(=O)c1cccc(C)c1O 22.1%
CCN(CC)S(=O)(=O)c1ccc(Cl)c(C(=O)Nc2nnc(C)s2)c1 20.8%
COc1cccc(/C=C/C(=O)OCC(=O)Nc2cc(C(F)(F)F)ccc2Cl)c1 49.1%
CN1C2CC(OC(=O)C(CO)c3ccccc3)CC1C1OC12 (stereo unspecified) 33.2%
CN(C)CCCN(C(=O)c1ccc([N+](=O)[O-])o1)c1nc2cc3c(cc2s1)OCO3 47.7%
Cc1ccc(C)c(N2CCN(C(=S)Nc3ccc4nc(N5CCN(C)CC5)cc(C)c4c3)CC2)c1 45.4%
O=C(CN1CCCC1)Nc1ccc(-c2nc3cc(NC(=O)CN4CCCC4)ccc3o2)cc1 47.3%
C[C@@H]1CN([C@H](C)CO)C(=O)c2cc(NC(=O)Nc3ccc4c(c3)OCO4)ccc2O[C@H]1CN(C)C(=O)Nc1cccc2ccccc12 29.2%
COc1ccc(CN(C)C[C@@H]2Oc3ccc(NC(=O)NC(C)C)cc3C(=O)N([C@H](C)CO)C[C@H]2C)cc1 48.4%
CCOC(=O)C1(C/C(C)=N/NC(N)=O)CC(C)OC1=O (stereo unspecified) 23.9%
COc1ccc(Nc2nc(NCC3CCCO3)c3ccccc3n2)c(OC)c1 (stereo unspecified) 44%
Nc1c(C(=O)NCCN2CCOCC2)c2nc3ccccc3nc2n1-c1ccc2c(c1)OCO2 42.3%
c1c[nH]c(CN2CCN(Cc3ncc[nH]3)CC2)n1 46.4%
COc1cccc(/C=C2/Sc3ccc(C(=O)NCCCN4CCCC4)cc3NC2=O)c1 49.2%
COc1nc(N=C(N)N)nc2c(C)cccc12 49.1%
CCN(CC)CCn1c2ccc(F)cc2c2nc(C)sc21 48.2%
C#CCOCCOCCOCCNc1nc(N2CCN(C(=O)CCCCCCCCCCNC(=O)Cn3cc(CCCCCN)nn3)CC2)nc(N2CCN(C(=O)CCCCCCCCCCNC(=O)Cn3cc(CCCCCN)nn3)CC2)n1 25.9%
